Laboratory results as given in the supplement of paper PMC4604168 (melanoma cell lines).
This is one part of the list. Most values come without repeats; read them as rough.

Tests used:
Assay in all cases: cell count relative to DMSO control; melanoma cells; higher = more viable cells
Conditions in all cases: library dose: standard library concentration; 72 h
[1] = tested on: G361
[2] = tested on: IPC-298
[3] = tested on: IST-MEL1
[4] = tested on: LB2518-MEL
[5] = tested on: LOXIMVI
[6] = tested on: MEL-HO
[7] = tested on: MZ2-MEL
[8] = tested on: MeWo
[9] = tested on: RPMI7951
[10] = tested on: RVH-421
[11] = tested on: SkMel28
[12] = tested on: SkMel2
[13] = tested on: SkMel30
[14] = tested on: SkMel5
[15] = tested on: UACC257
[16] = tested on: UACC62
[17] = tested on: WM115
[18] = tested on: WM1716
[19] = tested on: WM1745
[20] = tested on: WM3526
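Note: cells treated in 1,536-well plates, then fixed and DAPI-stained, with nuclei counted from automated high-throughput microscope images.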

Structure (SMILES)	cell count [1] [%]	cell count [2] [%]	cell count [3] [%]	cell count [4] [%]	cell count [5] [%]	cell count [6] [%]	cell count [7] [%]	cell count [8] [%]	cell count [9] [%]	cell count [10] [%]	cell count [11] [%]	cell count [12] [%]	cell count [13] [%]	cell count [14] [%]	cell count [15] [%]	cell count [16] [%]	cell count [17] [%]	cell count [18] [%]	cell count [19] [%]	cell count [20] [%]
COCC[n+]1c2c(n(Cc3cnccn3)c1C)C(=O)c1ccccc1C2=O + COc1ccc(-c2ccc3c(N4CCOCC4)nc(N4C[C@@H](C)O[C@@H](C)C4)nc3n2)cc1CO [KU0063794] (first compound 0.002 µM, partner dose 0.1 µM)	72.6	41.5	41.5	25	70.1	79.1	19	62.5	43.3	95.5	42.2	36.8	51.3	51.4	24.8	95.3	67.9	70.1	73.1	52.1
OCc1c[nH]c2ccccc12 [Indole-3-carbinol] + Cn1c(Nc2ccc(C(F)(F)F)cc2)nc2cc(Oc3ccnc(-c4ncc(C(F)(F)F)[nH]4)c3)ccc21 [CHIR265] (first compound 4 µM, partner dose 0.4 µM)	23.7	40.1	83.5	42	78.3	63.2	68.5	74	63.9	48.6	42.4	57.2	61.1	36.8	64.3	43.2	43.7	86	58.4	48.6
O=C(CCCCCCC(=O)Nc1ccccc1)NO [vorinostat] + O=C1NC(=O)/C(=C/c2ccc(-c3ccc(F)cc3O)o2)S1 [AS252424] (first compound 0.4 µM, partner dose 5 µM)	52.3	72.6	90.2	75.5	70.7	71.8	90.6	75.1	73.5	77.4	40.2	63.7	89.9	70	66.4	80.7	100	88	82.1	77.8
Clc1ccc(Nc2nnc(Cc3ccncc3)c3ccccc23)cc1 [vatalanib] + Cc1cc(N2CCOCC2)cc2[nH]c(-c3c(NC[C@@H](O)c4cccc(Cl)c4)cc[nH]c3=O)nc12 [BMS536924] (first compound 10 µM, partner dose 1 µM)	80.1	92.3	80.1	97.3	68.4	71.4	84.3	76.1	96.5	69.3	104	85.1	113	77.1	75.9	122	124	110	63	86
C#Cc1cccc(Nc2ncnc3cc(OCCOC)c(OCCOC)cc23)c1 [erlotinib] + CCCCCCCCCCCC1=C(O)C(=O)C=C(O)C1=O [Embelin] (first compound 4 µM, partner dose 6 µM)	46.3	53.6	54.8	62.7	95.9	69.6	65.2	74.2	50.3	64	55.7	83.8	70.5	57.9	73.1	84	76	70.1	39.3	54
OCc1c[nH]c2ccccc12 [Indole-3-carbinol] + Nc1cccc2c1CN(C1CCC(=O)NC1=O)C2=O [lenalidomide] (first compound 4 µM, partner dose 5 µM)	108	98.8	112	87.4	90.6	105	105	96.6	69.4	128	74.1	98.9	91.7	87.3	97.5	69.2	105	99.2	67.2	77.5
C#Cc1cccc(Nc2ncnc3cc(OCCOC)c(OCCOC)cc23)c1 [erlotinib] + COc1cc2ncnc(Nc3ccc(Oc4ccccc4)cc3)c2cc1OC [SrcI1] (first compound 4 µM, partner dose 10 µM)	31.1	53.8	89	70.6	67.6	59.2	45.5	54.2	27.1	72.3	44.1	80.7	74	60.5	89.2	43.1	58.9	76.4	41.5	46.7
COCC[n+]1c2c(n(Cc3cnccn3)c1C)C(=O)c1ccccc1C2=O + N#Cc1c(O)c2c(-c3ccc(-c4ccccc4O)cc3)csc2[nH]c1=O [A769662] (first compound 0.002 µM, partner dose 10 µM)	84.5	64.1	44.4	51	101	97.8	44.6	96.1	37	110	72.1	49.7	48.1	58	25.7	85.7	97.8	65.3	98.7	49.5
Clc1ccc(Nc2nnc(Cc3ccncc3)c3ccccc23)cc1 [vatalanib] + C=CCn1c(=O)c2cnc(Nc3ccc(N4CCN(C)CC4)cc3)nc2n1-c1cccc(C(C)(C)O)n1 [MK1775] (first compound 10 µM, partner dose 0.1 µM)	59.7	61.1	63	50	75.8	65.3	81.2	72.7	47.2	15.6	39.9	66.7	73.3	43.6	80.3	55.9	77.4	97.9	45.8	76.8
Cn1c(Nc2ccc(C(F)(F)F)cc2)nc2cc(Oc3ccnc(-c4ncc(C(F)(F)F)[nH]4)c3)ccc21 + CN(C)S(=O)(=O)c1ccc2c(c1)/C(=C/c1cc3c([nH]1)CCCC3)C(=O)N2 [SU6656] (first compound 0.4 µM, partner dose 2 µM)	23.6	42.5	65.5	30.3	77.7	71.3	30.5	56.6	35	45	22.1	43.6	58.5	36.9	58.4	41.1	28.3	55	33.6	34.5
C#Cc1cccc(Nc2ncnc3cc(OCCOC)c(OCCOC)cc23)c1 [erlotinib] + O=C(Nc1cccc(Cl)c1)Nc1ncc(CCNc2ncnc3ccsc23)s1 [SNS314] (first compound 4 µM, partner dose 0.004 µM)	54.8	41.7	42.7	57	67.3	63.8	62.7	46.4	44.8	51.3	38.1	65.2	82.1	52.9	57.2	69	34.8	44.2	35.2	49
O=C(CCCCCCC(=O)Nc1ccccc1)NO [vorinostat] + O=C(Nc1ccccc1)c1cc([N+](=O)[O-])ccc1Cl [GW9662] (first compound 0.4 µM, partner dose 10 µM)	70.4	82.6	84.2	69.4	57.7	77.7	78	76.4	75	88.9	32.3	82.3	91.5	66.1	69.3	58.7	70.9	91.3	82.2	84.3
C#Cc1cccc(Nc2ncnc3cc(OCCOC)c(OCCOC)cc23)c1 [erlotinib] + COc1ccc(-c2ccc3c(N4CCOCC4)nc(N4C[C@@H](C)O[C@@H](C)C4)nc3n2)cc1CO [KU0063794] (first compound 4 µM, partner dose 0.1 µM)	95.3	71.1	98.1	71.4	101	110	90.5	83.2	68.8	97.4	56.4	86.5	83.4	77.3	111	103	88.1	95.7	60.3	77.3
C#Cc1cccc(Nc2ncnc3cc(OCCOC)c(OCCOC)cc23)c1 [erlotinib] + O=C1NC(=O)/C(=C/c2ccc(-c3ccc(F)cc3O)o2)S1 [AS252424] (first compound 4 µM, partner dose 5 µM)	66.8	71.8	98	72.1	75.9	70.6	90.5	69.4	63.4	113	63.6	87.7	79.6	58.6	89.5	80.7	75.8	90.5	46.5	66.8
OCc1c[nH]c2ccccc12 [Indole-3-carbinol] + Cc1cc(N2CCOCC2)cc2[nH]c(-c3c(NC[C@@H](O)c4cccc(Cl)c4)cc[nH]c3=O)nc12 [BMS536924] (first compound 4 µM, partner dose 1 µM)	75.5	86.8	101	82.6	101	106	134	80.4	93.8	81.3	78.8	77.4	86.5	64.2	101	62.1	93	109	61.3	84.2
Cn1c(Nc2ccc(C(F)(F)F)cc2)nc2cc(Oc3ccnc(-c4ncc(C(F)(F)F)[nH]4)c3)ccc21 + CN(NC(=O)CC(=O)NN(C)C(=S)c1ccccc1)C(=S)c1ccccc1 [STA4783] (first compound 0.4 µM, partner dose 0.03 µM)	15.9	44.7	32.5	7.46	44.9	65.2	71.2	12	39.7	44.6	23	33.3	64.9	24.7	65.5	55.8	29.7	65.1	26.5	42.9
COCC[n+]1c2c(n(Cc3cnccn3)c1C)C(=O)c1ccccc1C2=O + COc1cc(N2CCC(N3CCN(C)CC3)CC2)ccc1Nc1ncc(Cl)c(Nc2ccccc2S(=O)(=O)C(C)C)n1 [NVP-TAE684] (first compound 0.002 µM, partner dose 0.4 µM)	71.8	41.2	47.2	17.1	86.5	82.3	21.6	50.4	37.8	95.6	55.8	21.7	43.4	33.6	19.5	77.7	44	66.3	49.4	22.3
Cn1c(Nc2ccc(C(F)(F)F)cc2)nc2cc(Oc3ccnc(-c4ncc(C(F)(F)F)[nH]4)c3)ccc21 + Cc1cc([N+](=O)[O-])ccc1NS(=O)(=O)c1cc(Cl)ccc1Cl [FH535] (first compound 0.4 µM, partner dose 5 µM)	13	42	50.3	33.5	126	40.5	37.3	54.9	33.7	35.3	26.8	41.5	65.2	33.2	54.2	53.9	26.4	56.8	42.9	37.9
